# Experimental data published in article PMC4336329 (PLoS ONE, 2015).
# In all, about 310,000 compounds went through this assay and about 14,000 (4.5%) showed an effect of 50% or more. The effect is printed as a negative number. The list shows a part of the results.
# Molecular target: human ether-à-go-go-related gene (hERG) potassium channel (human, UniProt Q12809)
# Test: primary screen, population patch clamp on CHO cells stably expressing hERG
# 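Note: peak tail current of the secondary pulse compared with the same well before compound.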
# human ether-à-go-go-related gene (hERG) potassium channel, sequence (Q12809 whole entry, looked up): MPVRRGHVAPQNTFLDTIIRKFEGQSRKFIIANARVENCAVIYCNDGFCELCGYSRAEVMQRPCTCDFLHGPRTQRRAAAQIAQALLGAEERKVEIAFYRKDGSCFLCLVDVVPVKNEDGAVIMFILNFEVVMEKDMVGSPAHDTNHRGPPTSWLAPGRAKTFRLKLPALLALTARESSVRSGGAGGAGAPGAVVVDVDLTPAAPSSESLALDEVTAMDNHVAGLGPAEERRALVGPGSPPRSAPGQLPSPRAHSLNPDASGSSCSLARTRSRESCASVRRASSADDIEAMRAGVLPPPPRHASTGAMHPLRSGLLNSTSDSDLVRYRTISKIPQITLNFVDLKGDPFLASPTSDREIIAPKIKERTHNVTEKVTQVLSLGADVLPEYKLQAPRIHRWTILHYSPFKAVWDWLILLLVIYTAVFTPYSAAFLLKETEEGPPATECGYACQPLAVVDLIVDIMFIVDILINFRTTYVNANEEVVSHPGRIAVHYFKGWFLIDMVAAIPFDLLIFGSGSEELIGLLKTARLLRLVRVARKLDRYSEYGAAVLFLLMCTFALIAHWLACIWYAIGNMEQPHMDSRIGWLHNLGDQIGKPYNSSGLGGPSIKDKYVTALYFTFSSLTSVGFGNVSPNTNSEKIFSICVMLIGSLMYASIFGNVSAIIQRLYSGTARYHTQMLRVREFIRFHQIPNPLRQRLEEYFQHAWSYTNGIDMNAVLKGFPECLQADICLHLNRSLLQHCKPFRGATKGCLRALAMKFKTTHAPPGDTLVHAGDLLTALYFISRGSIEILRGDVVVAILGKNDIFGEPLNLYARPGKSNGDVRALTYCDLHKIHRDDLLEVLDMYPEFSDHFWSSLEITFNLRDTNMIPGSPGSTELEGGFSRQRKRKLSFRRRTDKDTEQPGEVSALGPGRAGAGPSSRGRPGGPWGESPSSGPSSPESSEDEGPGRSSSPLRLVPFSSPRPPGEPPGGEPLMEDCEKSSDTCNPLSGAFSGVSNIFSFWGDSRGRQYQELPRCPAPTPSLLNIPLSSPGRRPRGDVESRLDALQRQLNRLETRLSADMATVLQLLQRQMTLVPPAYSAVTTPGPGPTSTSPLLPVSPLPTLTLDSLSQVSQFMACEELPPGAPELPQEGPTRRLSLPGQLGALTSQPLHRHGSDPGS
row,Structure (SMILES),"hERG current change (%, negative = inhibition) at 10uM"
1,C=CCn1c(NCc2ccccc2)nc2ccccc21,-26.4%
2,Cc1cccc(NC(=O)C2CCN(c3nc(C)cc(C)n3)CC2)c1,-3.89%
3,Cc1c(C)n(C)c2ccc(C(=O)NCCCN3CCCCC3)cc12,-17.2%
4,CC(NC(=O)CSc1n[nH]c(=O)[nH]c1=O)C1CC2CCC1C2 (stereo not shown),13.9%
5,CC(=O)Oc1ccccc1C(=O)Nc1ncc([N+](=O)[O-])s1,-2.57%
6,CC1CN(c2c3c(nc4ncnn24)CCCC3)CC(C)O1 (stereo not shown),-2.49%
7,Cc1cc(-c2csc(NC(=O)c3cc4ccccc4o3)n2)c(C)n1C,-1.53%
8,COc1ccc(NC(=O)c2nc[nH]c2C(=O)N[C@@H](C)C(=O)OC(C)(C)C)cc1,3.37%
9,COCC(=O)n1cc(C(=O)OC)c2ccccc21,-1.02%
10,NC(=O)c1ccc(NC(=O)CSc2nnc(-c3cccnc3)n2Cc2ccco2)cc1,6.87%
11,CCN(CC(=O)NCc1ccc(F)cc1)C(=O)Cc1c(F)cccc1Cl,-37.6%
12,Cc1ccc(-c2csc3ncnc(N4CCN(C(=O)c5ccccc5)CC4)c23)cc1,-30.5%
13,Cc1c(F)cccc1NS(=O)(=O)c1ccc2c(c1)NC(=O)CO2,4.42%
14,COc1ccccc1N1CCN(C(=O)c2ccc(S(=O)(=O)N3CCCCC3)cc2)CC1,-10.2%
15,O=C(Nc1cnn(Cc2ccc(F)cc2)c1)C(c1ccccc1)c1ccccc1,-30.1%
16,O=C1CC(c2ccccc2)CN1C(=O)c1cccnc1 (stereo not shown),-2.28%
17,CC(C)c1cc2c(c(O)c1O)[C@@]13CCCC(C)(C)C1CC2OC3=O (stereo partly shown),-0.339%
18,N/C(Cc1cccc2ccccc12)=N\OC(=O)c1cccs1,10.2%
19,CN1CCN(NC(=O)c2cccs2)CC1.Cl,-47.4%
20,O=C(CC1S/C(=N/N=C/c2ccco2)NC1=O)Nc1cccc(Cl)c1Cl (stereo not shown),18.2%
21,O=C(CCc1ccccc1)Nc1ccccc1C(F)(F)F,1.73%
22,Cc1ccc(N(Cc2ccccc2O)C(=O)c2ccccc2F)cc1,6.57%
23,O=C(CCC(=O)N1CCc2ccccc2C1)NCCc1ccc(Cl)cc1,-32.9%
24,O=C(Cn1cc(C(F)(F)F)ccc1=O)N1CCN(S(=O)(=O)c2ccccc2)CC1,3.23%
25,Cc1ccc(S(=O)(=O)NCC(=O)OCC(=O)NCCc2ccccc2)cc1,9.61%
